The record followed here is patent US20260232794A1 (YANTAI PATRONUS BIOTECH, published 2026).

Assay [1] has as its target T1, VZV gE-binding peptide 1 fusion protein VZV gE-4T with linker peptide 1 (G4S)3 (varicella-zoster virus).
T1 construct: Expressed in CHO cells, without signal peptide; also called antigenic component
In words: covalent conjugation, mixed 2:1, 22 C for 24 h; SDS-PAGE, DLS, TEM.

The target of assay [2] is T2, VZV gE-binding peptide 1 fusion protein VZV gE-4T with linker peptide 1 (EAAAK)3 (varicella-zoster virus).
T2 construct: Expressed in CHO cells; also called antigenic component
The description is as above.

Assay [3] concerns the target T1, VZV gE-binding peptide 1 fusion protein …. Briefly: SDS-PAGE, DLS, TEM of the binding product.
Assay [4] addresses T2, VZV gE-binding peptide 1 fusion protein …. Briefly: SDS-PAGE, DLS, TEM of the binding product.

B1: binding peptide 2-AP205 fusion protein AP205-4C (other)
chain: MGSSHHHHHHGSGDS[… about 80 residues …]GKATKGDAHIGSGGSGGSGANKPMQPITSTANKIVWSDPTRLSTTFSASLLRQRVKVGIAELNNVSGQYVSVYKRPAPKPEGCADACVIMPNENQSIRTVISGSAENLATLKAEWETHKRNVDTLFASGNAGLGFLDPTAAIVSSDTTA
With B1, the binding result in assay [1] and in assay [2] was “binds” in each case.

B2: binding peptide 2-Ferritin fusion protein Ferritin-4C (other)
chain: MHHHHHHGGSDS[… about 80 residues …]GKATKGDAHISGGSGGDIIKLLNEQVNKEMNSSNLYMSMSSWCYTHSLDGAGLFLFDHAAEEYEHAKKLIIFLNENNVPVQLTSISAPEHKFEGLTQIFQKAYEHEQHISESINNIVDHAIKSKDHATFNFLQWYVAEQHEEEVLFKDILDKIELIGNENHGLYLADQYVKGIAKSRKS
Regarding B2, the binding result in assay [3] and in assay [4] was “binds” each time.
